Sequences with one replicate were seen in a single cluster, so their values are uncertain.
Test system: ATP
Experiment: switch fluorescence ratio, 500 uM ATP over buffer (Cy3 cluster intensity, sum of 5 cycles each) (fold (ratio)); higher = stronger signal-on switching upon ATP binding; sequences stand for … in TCGTCGGCAGCGTCAGATGTGTATAAGAGACAGTTTTTTTTTTTTTTTTTTTTTTTTT…TC
Conditions: aptamer strand: ATP DNA aptamer (quencher-CACCTGGGGGAGTATTGCGGAGGAAGG + anchor), 100 nM annealed; ATP concentration: 500 uM; one replicate
Summary of the method: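 Values give the fluorescence ratio for each switch-domain sequence, averaged from per-cluster ratios of summed target-cycle to summed buffer-cycle Cy3 intensity. The Cy3-labelled switching-strand clusters sat on a modified Illumina MiSeq flow-cell, were annealed to 100 nM quencher-labelled ATP aptamer, and were imaged in selection buffer, then after 15 min with 500 uM ATP at 22 °C. Five cycles ran with NaOH stripping and re-annealing between them, and clusters outside 100-1000 RFU were excluded.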
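Further: ATP exposure 15 min at 22 °C before imaging.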

Row | Sequence | switch fluorescence ratio
1 | TCAGACTTTA | 1.03
2 | TTGTTATAAA | 0.994
3 | CCAGACAAAT | 0.992
4 | GGGGACTAGA | 0.977
5 | CCACCGTCGT | 1.32
6 | AATATCAAGT | 0.989
7 | CCGGTCCGAC | 1.7
8 | GTTTTATA | 1.02
9 | CAGATCTGTG | 0.976
10 | AAGATGCGAC | 1.08
11 | AGACCATCGA | 0.951
12 | AATTGGGTA | 1.03
13 | CTTATTTCG | 0.963
14 | CCACTGATGT | 1.08
15 | CCGACAGGTA | 1.16
16 | CCATACCAAT | 1.39
17 | GATAGTGACG | 0.944
18 | AGATCCTGGG | 0.978
19 | GGATCCTCTA | 0.982
20 | AGGCGACCTC | 1.06
21 | TCGCCGACAC | 1.58
22 | ACGAGAGTTT | 1
23 | GCGACTAGGA | 1.02

Row | Sequence | switch fluorescence ratio
24 | ATTTTGCTAT | 1.04
25 | CGTTATTACC | 1.04
26 | TTTAAGATGT | 1
27 | ACGCTATCCG | 1.01
28 | GTGGCTTCGG | 0.995
29 | AACGCCTATT | 1.05
30 | CATAAACGTA | 0.959
31 | TGAGGTCTAG | 0.979
32 | CAGGAGTGTG | 1.01
33 | GCGCCTAAGA | 1.07
34 | ATTTCGTTTT | 1.02
35 | TCGCTACTT | 1.11
36 | CGTCCCCATT | 1.22
37 | ATGACCCAAT | 1.08
38 | AACATTCCTA | 1.34
39 | TAGTGGGGTT | 1.04
40 | TAAGGAGTGA | 1.26
41 | ATGCATTCA | 1.06
42 | TAGGGACGAT | 0.982
43 | TCTCTATGCT | 1.01
44 | GTGGTCGGTT | 0.987
45 | GGCGGCGTTT | 1
46 | AGAGAATCAA | 1.02

Row | Sequence | switch fluorescence ratio
47 | GACCGGATGA | 1.05
48 | AAATATAGAT | 1.01
49 | ATTCAGAACG | 1.02
50 | GGTAGTAGCG | 1.06
51 | GGAACGCGGC | 1.01
52 | AATAGGAGAA | 1.02
53 | GGCCTTTTGG | 0.941
54 | TGTGGGTTGT | 1.01
55 | ATCCCTAGTT | 1.02
56 | AAACATAGAC | 1.04
57 | TTGTGAACAA | 0.989
58 | TTCTACGGCG | 0.994
59 | GATGGATTTC | 0.944
60 | GGCCACGAGT | 1
61 | AGAGAGATGT | 1.01
62 | TTAAGAAAA | 0.994
63 | TAATAGTCAC | 0.983
64 | ACAGATTCGA | 0.96
65 | TCGACATTGA | 1.02
66 | CTATGAGCT | 1.03
67 | AGCCACGCTA | 1.03
68 | AACCGTCGGA | 1.02
69 | TTGATGGCGC | 0.984

Row | Sequence | switch fluorescence ratio
70 | GGGATTGCA | 1.01
71 | GCCTTTATT | 1.01
72 | TGGTAACTAG | 1.02
73 | TTGATATATG | 1.02
74 | TAGACCGGAA | 1.12
75 | GGTAGTAACG | 1.02
76 | GGCCCTGGAT | 0.997
77 | ATTAGGCTGC | 0.957
78 | TGTGGTCATT | 1.11
79 | GGGACCACGT | 1
80 | ACACTAGGCA | 1.07
81 | GCTACGCATT | 2.76
82 | AACTTAGAGG | 1
83 | AAACCCTCCG | 1.37
84 | GTTTTAGACT | 1.01
85 | CACATTGGTC | 0.99
86 | AGACTGTCAA | 0.992
87 | GGGCGGTGTT | 0.969
88 | AAGGTGTGG | 1.05
89 | TAGAATATCA | 0.987
90 | TGGATCTAT | 1.02
91 | AGTGGATTAG | 0.969
92 | CACGTCCACT | 1.4

Row | Sequence | switch fluorescence ratio
93 | TGTGTAAGGA | 0.961
94 | AAAAGTGTG | 0.993
95 | TACGGAATGC | 1.57
96 | TCGCGGAGGT | 1.05
97 | TGCGAGCAGC | 1.11
98 | GGAGCGCACC | 1.01
99 | CAGTAGATTT | 0.936
100 | ATTTCTAACG | 1.06
101 | TGATGTAGGG | 1
102 | GCCTACCTCT | 1.1
103 | GGCAATAACA | 1.12
104 | GAGTGGTGGA | 0.998
105 | TTCATGGCAC | 1.06
106 | AGTCATACGC | 1.1
107 | GTCTGTATGG | 1.02
108 | TTATTCAGTG | 0.976
109 | GTGTACTAAG | 1.04
110 | GCTGCGGCG | 0.979
111 | AGCCGCATTT | 1.38
112 | GGTTTCTTTG | 0.954
113 | AATTCAGCTT | 0.964
114 | GGGAAACCTC | 0.998
115 | GGCAGAACAT | 1.05

Row | Sequence | switch fluorescence ratio
116 | CAAATATGAA | 0.974
117 | TGGCCTGTAC | 1.15
118 | CTCATAGGAC | 1.05
119 | GCAGTGAGAC | 3.69
120 | TATGAGTGCT | 1.04
121 | CAGAGTTCCC | 0.976
122 | TTCCGGGAGT | 0.985
123 | TTACTTTTCC | 1.15
124 | GCGTTACTCT | 1.31
125 | ATGCGGAGAC | 1.05
126 | TAAGATCCCC | 1.03
127 | ACTGACGTGT | 1.07
128 | GTAGTTCGAT | 1.03
129 | CCCCTCTCTG | 1.06
130 | GGACCAACTG | 1.1
131 | ACATTTAGCA | 0.982
132 | ATATCTCCTT | 1.04
133 | CTCGGCAGGA | 1.76
134 | GCCAAAAGCA | 1.05
135 | ACGTATCCAG | 0.978
136 | GGAGTGTTTG | 0.953
137 | CCCGTAAAGA | 1.07
138 | CGCACGCTGG | 1.08

Row | Sequence | switch fluorescence ratio
139 | TGTGTGCGTC | 0.964
140 | GGGTCCTTC | 1.03
141 | ATCGCAGGA | 0.932
142 | ACCCCATTGT | 1.11
143 | CGGGCAAAAT | 1.01
144 | TGGGGAGCGG | 1.07
145 | GACTTACCCG | 1.18
146 | CGCACTTTG | 1.04
147 | TTTAAAGCG | 1.02
148 | TCTGGGCACC | 0.984
149 | ATCCTTTATT | 0.992
150 | CCGGGATTT | 1.01
151 | GTCCGCCAGT | 1.2
152 | GAACTGAACC | 1.32
153 | GGGTTTAGGA | 1.04
154 | CGCGCTGATG | 0.992
155 | GCGGCCCCTT | 1.01
156 | CCAGAGCCGT | 1.14
157 | GTTCGCAGCT | 1.08

From the supplement of paper PMC10126150
